Source: PubChem BioAssay AID493208 (National Center for Advancing Translational Sciences (NCATS), 2011)
Hit rate of the full screen: of about 44,000 compounds, about 340 (0.77%) were called active. Another 5% or so got no clear call; they are omitted. Calls follow the shape of the dose curve; as a rule, active = well fitted inhibition curve with a large enough effect; inconclusive = small, poorly fitted or top-dose-only effect; inactive = flat fitted curve, though single readings scatter. The list shows a part of the results.

Assay: Acumen qHTS Assay for Inhibitors of the mTORC1 Signaling Pathway in MEF (Tsc2-/-, p53-/-) Cells: Sytravon;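 also: plate controls were DMSO for no effect and rapamycin for full effect; nearly all actives have a fitted effect of over 50% in size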
Conditions: phospho-rpS6 immunofluorescence/PI, 24 h; series mostly up to 38.3 µM; activity change, negative = inhibition: at the top concentration
Outline: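 Plate MEFs (Tsc2-/-, p53-/-, empty vector) in DMEM/10% FBS; after 24 h add compound, incubate 24 h at 37 degree Celsius; fix in PFA/TX-100, block, stain phospho-rpS6 and 10 uM PI; scan at 488 nm; report % positive cells.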

| Compound | activity change, negative = inhibition |
| --- | --- |
| CC(C)Oc1ccc(CNS(=O)(=O)c2ccc3c(c2)C(C)(C)C(=O)N3C)cc1 | inactive: 2.54% |
| COc1ccc(S(=O)(=O)n2nc(C)c(S(=O)(=O)N3CCCCCC3)c2C)cc1 | inactive: 0.394% |
| Cc1cc(C)n2c(Nc3ccc4c(c3)OCCO4)c(-c3ccc(Cl)cc3)nc2n1 | inactive: 1.37% |
| Cc1ccccc1NC(=O)NCCCN1CCN(c2ccccc2F)CC1 | inactive: -3.02% |
| COC(=O)c1cc(S(=O)(=O)N2CCN(c3ccc(OC)cc3)CC2)c[nH]1 | inactive: -0.482% |
| Cc1cc(N2CCCCC2)nc2ccc(NC(=O)/C=C/c3ccc(OC(C)C)cc3)cc12 | inactive: 5.08% |
| Cc1ccc(NC(=O)c2cnc(N3CCCCC3)c3ccccc23)c(C)c1 | inactive: -0.909% |
| COCCCNC(=O)C1CCN(C(=O)c2cnn(-c3ccccc3)c2-n2cccc2)CC1 | inactive: -3.98% |
| CCCN1CCN(C(=O)Cn2c(-c3cccs3)cc3ccccc32)CC1 | inactive: -0.551% |
| COC(=O)c1c(Oc2ccc(OC)cc2)nnc(-c2ccccc2)c1-c1ccccc1 | inactive: -11.1% |
| CCCCOc1ccc(C2=NC(c3cccs3)=Nc3ccc(CC)cc3N2)cc1 | inactive: -8.95% |
| CC(C)CC(=O)Nc1nc2nc(-c3ccccc3)cc(=O)n2[nH]1 | inactive: -1.03% |
| COc1ccc(CNC(=O)CCCn2nc(C)c3sc4ccccc4c3c2=O)cc1OC | inactive: 6.73% |
| CCOc1ccccc1CNC(=O)c1ccc(N2Cc3ccccc3Oc3ncccc32)s1 | inactive: 0.354% |
| Cc1ccc(N2C(=O)NC(NS(=O)(=O)c3ccccc3)(C(F)(F)F)C2=O)cc1C (configuration not stated) | inactive: -3.69% |
| Cc1cccc(NC(=O)N2CCN(C(=O)c3nsc4ccccc34)CC2)c1C | inactive: 10.6% |
| COc1cccc(NC(=O)CN2C(=O)CSc3ccc(S(=O)(=O)N4CCCC4)cc32)c1 | inactive: 1.9% |
| Cc1ccc(CNC(=O)c2cccn2-c2nnc(N3CCCC3)s2)cc1 | inactive: -2.75% |
| Clc1ccc2c(c1)-c1c(cnc3cc(-c4ccccc4)nn13)CO2 | inactive: 4.51% |
| COc1ccc(N2CCN(C(=O)c3cnn(-c4ccc(F)cc4)c3-n3cccc3)CC2)cc1 | inactive: 5.27% |
| COC(=O)COc1ccc2oc(-c3ccc(OC)cc3)cc(=O)c2c1 | inactive: -2.29% |

| Compound | activity change, negative = inhibition |
| --- | --- |
| O=C(Nc1ccc(Br)cc1F)C1CCN(c2nc3ccccc3[nH]2)CC1 | inactive: 0.628% |
| CCOc1ccc(C(=O)Nc2nnc(S(=O)(=O)Nc3ccccc3)s2)cc1 | inactive: 3.76% |
| CCOc1cc2[nH]c(=O)n(CCCCC(=O)N3CCN(c4ccc(OC)cc4)CC3)c(=O)c2cc1OCC | inactive: -10.2% |
| O=C1CCCc2cc(S(=O)(=O)N3CCCC(C(=O)Nc4ccc(F)c(Cl)c4)C3)ccc2N1 (configuration not stated) | inactive: -9.35% |
| Cc1ccc(CNC(=O)CCc2c(C)c3ccc(O)c(C)c3oc2=O)cc1 | inactive: 5.46% |
| CSc1cccc(Nc2cc(C(=O)NCCc3ccc(Cl)cc3)c3ccccc3n2)c1 | inactive: -7.71% |
| CC1CN(C(=O)N2CCC(C(=O)N3CCN(c4ccccc4)CC3)CC2)c2cc(Cl)ccc2O1 (configuration not stated) | inactive: 2.66% |
| CCOc1ccc2nc(N3CCC(C(=O)Nc4ccccc4CC)CC3)sc2c1 | inactive: -2.52% |
| Cc1oc2c(cc(NS(=O)(=O)c3ccc(C(C)C)cc3)c3ccccc32)c1C(=O)O | inactive: 5.37% |
| CC(=O)Nc1ccc(S(=O)(=O)N2CCC(c3nnc(-c4ccc(C)cc4)o3)CC2)cc1 | inactive: -15% |
| CC(C)C(=O)N1c2nc(-c3ccco3)nn2C2(CCCCC2)[C@@H]2CCCC[C@@H]21 | inactive: -1.16% |
| CCN(CC)C(=O)c1sc2c(c1C)c(=O)n(-c1ccc(Cl)c(Cl)c1)c(=O)n2Cc1cc(=O)n2ccccc2n1 | inactive: 0.136% |
| COc1cccc(CNC(=O)Cn2c(=O)n3nc(-c4cccc(F)c4)nc3c3ccccc32)c1 | inactive: 1.95% |
| Cc1ccc(CCNc2ncnc3onc(-c4ccc(F)cc4)c23)cc1 | inactive: -0.568% |
| COc1ccc(NC(=O)CCn2c(=O)c3cccn3c3cccnc32)cc1Cl | inactive: -0.908% |
| O=C(Cn1c(=O)n(CCCS(=O)(=O)C2CCCCC2)c(=O)c2ccccc21)Nc1ccccc1C(F)(F)F | inactive: 4.55% |
| Cc1ccc(S(=O)(=O)c2[nH]c(-c3ccccc3)nc2SCC(N)=O)cc1 | inactive: 2.63% |
| COc1ccccc1CNS(=O)(=O)c1ccc2c(c1)CC(=O)N2C | inactive: -0.474% |
| CCOC(=O)N1CCN(C(=O)c2c(C)nn(-c3cccc(C)c3)c2-n2cccc2)CC1 | inactive: -2.3% |
| COC(=O)c1sc2ncccc2c1-n1c(C)ccc1C | inactive: -0.12% |
| Cc1ccc(C)c(N2CCN(C(=O)CCS(=O)(=O)c3cc4c(cc3Cl)NC(=O)CO4)CC2)c1 | inactive: 11.3% |

| Compound | activity change, negative = inhibition |
| --- | --- |
| CCOc1ccccc1NC(=O)C(CC)Sc1nc2ncccc2[nH]1 (configuration not stated) | inactive: 2.4% |
| CCCSc1nnc2c(n1)OC(c1ccc(Br)s1)Nc1ccccc1-2 (configuration not stated) | inactive: -0.941% |
| COc1ccc(-n2ncc3c2ncn2nc(COc4ccc(Cl)cc4)nc32)cc1 | inactive: -12.8% |
| COc1ccc(CNC(=O)C2=C(C)C(=O)OC23CCCCC3)cc1 | inactive: -3.75% |
| COc1ccc(CCNC(=O)CSc2cn(CCNC(=O)c3cccc(C(F)(F)F)c3)c3ccccc23)cc1OC | inactive: -9.5% |
| Cc1ccc(-n2ncc3c(N4CCC(C(N)=O)CC4)ncnc32)cc1 | inactive: 8.85% |
| O=C(Cn1ncc2ccsc2c1=O)N1CCN(c2ccc(F)cc2)CC1 | inactive: -2.07% |
| CCC1CN(C(=O)Nc2cccc3c2CCCC3)c2cc(Cl)ccc2O1 (configuration not stated) | inactive: -16.7% |
| Cc1cc(C(F)F)n2nc(C(=O)Nc3ccc(C(C)C)cc3)nc2n1 | inactive: -4.52% |
| Cc1oc(-c2ccccc2Cl)nc1CS(=O)CC(=O)NCc1ccc(Cl)cc1 (configuration not stated) | inactive: 2.72% |
| Fc1ccc(-c2ccc(CNCCSc3nnnn3-c3ccccc3)o2)cc1 | inactive: -17.2% |
| O=S(=O)(Nc1nc2ccccc2nc1Nc1ccccc1Br)c1ccccc1 | inactive: 0.785% |
| Cc1ccc(COc2ccc(-c3cc(C(F)(F)F)n4nc(C)cc4n3)cc2)cc1 | inactive: -0.0591% |
| O=C(CSc1nc2c([nH]c3ccccc32)c(=O)n1-c1cccc(Cl)c1)NCC1CCCO1 (configuration not stated) | inactive: 0.209% |
| CCOc1ccc(-c2cn(-c3ccc(C)cc3)c(SCC(=O)Nc3ccc(C)cc3)n2)cc1 | inactive: -0.274% |
| COc1cccc(CNC(=O)C(C)n2ncn3cccc3c2=O)c1OC (configuration not stated) | inactive: 4.13% |
| O=C(Cn1c2ncccc2c(=O)n1-c1ccccc1)NCc1ccccc1Cl | inactive: -3.99% |
| Cc1ccc(NC(=O)Cc2coc3ccc(C(C)C)cc23)c(C)c1 | inactive: -0.927% |
| CC1CCc2c(sc(NC(=O)c3cc(-c4cccc(Cl)c4)on3)c2C(N)=O)C1 (configuration not stated) | inactive: -18.3% |
| Cc1ccc(S(=O)(=O)C(CNC(=O)c2ccc(F)c(F)c2)c2ccco2)cc1 (configuration not stated) | inactive: -11.6% |
